Source: PubChem BioAssay AID686978 (National Center for Advancing Translational Sciences (NCATS), 2013)
About 64,000 (15%) of roughly 420,000 compounds were called active. The shares of active, inactive and inconclusive entries below differ from those in the screen. Calls follow the shape of the dose curve; as a rule, active = well fitted inhibition curve with a large enough effect; inconclusive = small, poorly fitted or top-dose-only effect; inactive = flat fitted curve, though single readings scatter. Potencies of inconclusive entries are left out as doubtful fits. Some structures have more than one record in an assay (separate samples or runs), and their calls can disagree.
% is scaled to controls: 0 for no effect and ±100 for the full control effect; potency is read from the fitted curve at half-maximal effect; tags tell the direction and shape of the fitted curve.

Test: qHTS for Inhibitors of human tyrosyl-DNA phosphodiesterase 1 (TDP1): qHTS in cells in absence of CPT; also: nearly all actives have a fitted effect of over 55% in size
Details: DT40 Tdp1-/- hTDP1 cells, no CPT, ATP luminescence, 48 h; activity change, negative = growth inhibition: at 46.2 µM (top of the series) unless noted
Outline: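 Seeded 400 DT40-hTDP1 cells/well (vehicle DMSO, no 20 nM CPT); pinned compounds; ≥48 hr at 37 °C; CellTiter-Glo luminescence as viability measure.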
For `CCC(C)NCCOCCSc1ccc(Cl)cc1` (stereo not given), the Potency was inconclusive [inhibitor, single point]. In the case of `COc1cc(C2CC(=O)Oc3c(C(CCN4CCOCC4)c4ccc(N(C)C)cc4)c(OC)cc(OC)c32)cc(OC)c1OC` (stereo not given), the “activity change, negative = growth inhibition” value is reported as inactive: -9.24%. For `S=c1[nH]cnc2scc(-c3ccc(Cl)cc3)c12`, the Potency was inconclusive [inhibitor, single point]. For `COC(=O)c1ccccc1NCC(=O)c1ccc(OC)cc1`, the Potency was inconclusive [inhibitor, single point]. With `CCOc1ccc(N(C)S(=O)(=O)c2ccc(C)c(C(=O)NCc3cccs3)c2)cc1` the Potency was inconclusive [inhibitor, partial curve]. For `Cn1c(=O)c2c(SCC(=O)N3CCc4ccccc43)nc(-c3ccc(Cl)cc3)nc2n(C)c1=O`, the “activity change, negative = growth inhibition” value was inactive: 0.535%. For `Cc1ccc(NC(=O)C2CCCN2c2nn3c(=O)cc(C)nc3s2)cc1` (stereo not given), the Potency was inconclusive [inhibitor, single point]. With `CCCC(=O)Nn1cnc2c(c1=O)C1(CCCC1)Cc1ccccc1-2` the “activity change, negative = growth inhibition” value was inactive: -16.5%. In the case of `CC1CCCCN1S(=O)(=O)c1ccc(S(=O)(=O)NCCc2ccncc2)cc1` (stereo not given), the Potency is reported as inconclusive [inhibitor, partial curve]. In the case of `O=C(Nc1ccccc1-c1nc2ccccc2s1)c1ccc(Br)o1`, the “activity change, negative = growth inhibition” value is reported as inactive: -16.6%. For `Cc1c(C(=O)NC2CC2)oc2ccc(S(=O)(=O)N3CCCCCC3)cc12`, the Potency was inconclusive [inhibitor, partial curve]. With `COc1cc(-c2nnc(SCC(=O)c3ccc(C)cc3)o2)cc(OC)c1OC` the Potency was active: 23.1 µM. For `CCOc1ccccc1N1CCN(Cc2cnc(-c3ccccc3)[nH]2)CC1`, the Potency was active: 23.1 µM. In the case of `Cc1ccc(CNS(=O)(=O)NCc2ccc(Cl)cc2)cc1`, the “activity change, negative = growth inhibition” value is reported as inactive: -4.36%. For `COc1ccc(OC)c(NC(=O)c2nnn(Cc3ccccc3C)c2N)c1`, the Potency was inconclusive [inhibitor, single point]. In the case of `Cc1ccc2oc(=O)c3cc(C(=O)N4CCN(c5ccccc5)CC4)sc3c2c1`, the “activity change, negative = growth inhibition” value is reported as inactive: 17.1%. With `c1ccc(-n2c(-c3ccco3)nnc2N2CCOCC2)cc1` the “activity change, negative = growth inhibition” value was inactive: 1.76%. With `CC(C)CCNCC1OCc2ccccc2CO1` the “activity change, negative = growth inhibition” value was inactive: -27.5%. In the case of `CCN1CCN(c2nc(Nc3cc(OC)ccc3OC)nc(Nc3cc(OC)ccc3OC)n2)CC1`, the Potency is reported as active: 23.1 µM. For `O=C(CSc1nnnn1C1CCCCC1)Nc1cccc(NC(=O)c2ccco2)c1`, the Potency was active: 4.11 µM. With `CC(=O)Nc1ccc(NC(=O)C(C)Oc2ccc(Cl)cc2Cl)cc1` (stereo not given) the “activity change, negative = growth inhibition” value was inactive: -15.6%. For `Cn1nnnc1SCCCNCc1ccc(-c2ccc(Br)cc2)o1`, the Potency was inconclusive [inhibitor, single point]. In the case of `COc1ccccc1CNC(=O)CCn1c(=O)c2ccccc2n(CC(=O)Nc2ccc(C)cc2)c1=O`, the Potency is reported as inconclusive [inhibitor, single point]. With `COc1ccccc1CC(=O)Nc1cc(S(=O)(=O)N2CCOCC2)ccc1N1CCOCC1` the “activity change, negative = growth inhibition” value was inactive: -4.24%. For `CCOc1ccc(NC(=S)N=Nc2c(O)[nH]c3ccccc23)cc1`, the Potency was active: 7.31 µM. For `O=C(COC(=O)C1(c2ccc(Cl)cc2)CCCC1)N1CCc2ccccc21`, the Potency was inconclusive [inhibitor, single point]. In the case of `CCCCCn1c(=O)[nH]c2cc(C(=O)Nc3cc(OC)cc(OC)c3)ccc2c1=O`, the Potency is reported as active: 23.1 µM. In the case of `C[C@@H]1CCCCCCCCC(=O)OCCN1C(=O)OC(C)(C)C`, the Potency is reported as inconclusive [inhibitor, single point]. For `Cc1ccccc1CCNC(=O)c1ccc2c(c1)c(C)c(C)n2C`, the Potency was inconclusive [inhibitor, single point]. In the case of `Nc1nnc(SCC(=O)Nc2cccc(S(=O)(=O)N3CCOCC3)c2)s1`, the “activity change, negative = growth inhibition” value is reported as inactive: -6.2%. With `CCN(Cc1ccncc1)C(=O)C1CCN(S(=O)(=O)c2cccs2)CC1` the Potency was inconclusive [inhibitor, single point]. For `N#CC1(NC(=O)Cn2cc(C(F)(F)F)ccc2=O)CCCC1`, the “activity change, negative = growth inhibition” value was inactive: -0.695%. In the case of `Cc1ccc(-c2c[n+](CC(=O)Nc3c(C)cccc3C)c3n2CCC3)cc1`, the Potency is reported as inconclusive [inhibitor, partial curve, poor fit]. In the case of `COC(=O)c1cc2oc3ccccc3c2n1Cc1cccc(C)c1`, the Potency is reported as inconclusive [inhibitor, single point]. In the case of `COc1cc(C2NC(=O)C(C#N)=C(S)N2c2ccccc2)ccc1OC(C)C` (stereo not given), the Potency is reported as inconclusive [inhibitor, single point]. In the case of `COc1cc(/C=C2\SC(=O)N(CC(=O)Nc3cccc(C)c3)C2=O)cc([N+](=O)[O-])c1O`, the Potency is reported as inconclusive [inhibitor, single point]. With `Cc1ccc(NC(=O)CSc2nnc(Cc3csc(C)n3)o2)c(C)c1` the “activity change, negative = growth inhibition” value was inactive: -10.7%. With `CCC1CN(C(=O)NCc2ccc(C)cc2)c2cc(C)ccc2O1` (stereo not given) the Potency was active: 14.6 µM. With `COC(=O)c1sc2ccccc2c1-n1cccc1C(=O)C(=O)Nc1ccc(C)cc1` the Potency was inconclusive [inhibitor, single point]. For `Nc1ccc(C#Cc2ccc3sc4ccccc4c(=O)c3c2)cc1`, the “activity change, negative = growth inhibition” value was inactive: -29.2%. With `CC(C)NC(=O)Cn1c(SCC(=O)c2ccc(F)cc2)nc2ccccc21` the “activity change, negative = growth inhibition” value was inactive: -11.4%. In the case of `CC1=C[C@@H](C)[C@@H](c2ccc(C(F)(F)F)cc2)OC1=O`, the “activity change, negative = growth inhibition” value is reported as inactive: -5.82%. With `O=C(NC1CCCCC1)C(c1ccco1)N(Cc1ccco1)C(=O)c1ccco1` (stereo not given) the Potency was inconclusive [inhibitor, partial curve]. For `Cc1cccc(-c2cc(N3CCCN(C)CC3)n3nccc3n2)c1`, the Potency was inconclusive [inhibitor, partial curve]. With `CCOc1ccccc1NC(=O)c1cccnc1` the “activity change, negative = growth inhibition” value was inactive: 8.78%. With `COc1ccc(NCC(=O)Nc2cc(S(=O)(=O)N3CCOCC3)ccc2N2CCOCC2)c(OC)c1` the activity change, negative = growth inhibition was inconclusive: -31.2% [inhibitor]. In the case of `Cc1cc(NC(=O)CCC(=O)N(Cc2ccco2)C2(C(=O)NC3CCCC3)CCC(C)CC2)no1` (stereo not given), the Potency is reported as inconclusive [inhibitor, partial curve, poor fit]. In the case of `CC1(C(=O)NS(=O)(=O)c2ccc(F)cc2F)CCN1C(=O)C1CCCCC1` (stereo not given), the “activity change, negative = growth inhibition” value is reported as inactive: -1.76%. In the case of `Cc1nc2sccn2c(=O)c1S(=O)(=O)NCC1CCN(Cc2ccc(Cl)cc2)CC1`, the Potency is reported as inconclusive [inhibitor, single point]. For `Cc1sc2nc[nH]c(=S)c2c1-c1ccccc1`, the Potency was inconclusive [inhibitor, single point]. With `O=P(O)(Cc1ccccc1)c1ccccc1` the “activity change, negative = growth inhibition” value was inactive: -6.23%. With `O=C(Nc1cccnc1)C1CCCN1S(=O)(=O)c1ccc(Cl)c(Cl)c1` (stereo not given) the Potency was inconclusive [inhibitor, single point]. For `CC(=O)Oc1ccc2ccc3ccc(C(C)=O)cc3c2c1`, the Potency was active: 18.4 µM. For `C#CCNC(=O)C1=C[C@H](c2csc3ccccc23)C[C@H](OCCCCO)O1`, the Potency was inconclusive [inhibitor, single point]. For `Cc1ccc(/C=N/NC(=O)Cc2ccc(Cl)cc2)s1`, the “activity change, negative = growth inhibition” value was inactive: -7.99%. For `COc1ccc2nc(NC(=O)C3CCCN(S(=O)(=O)c4c(C)noc4C)C3)sc2c1` (stereo not given), the Potency was inconclusive [inhibitor, single point]. With `CC1(C)CC(=O)C2=C(C1)OC(=O)C2(NC(=O)c1cccs1)C(F)(F)F` (stereo not given) the “activity change, negative = growth inhibition” value was inactive: -15.7%. With `COc1ccc(-n2nc(C(=O)N3CCC(N4CCCCC4)CC3)c3c4ccccc4n(C)c3c2=O)cc1` the Potency was inconclusive [inhibitor, single point]. With `Cc1nn(Cc2ccc(Cl)cc2)c(C)c1NC(=O)c1c(-c2ccccc2)noc1C` the “activity change, negative = growth inhibition” value was inactive: -29.9%. In the case of `O=C(N/C(=C\c1ccco1)C(=O)N1CCCC1CO)c1ccccc1` (stereo not given), the “activity change, negative = growth inhibition” value is reported as inactive: -0.567%. With `COC(=O)c1cc(C(=O)N2CCOCC2)cc([N+](=O)[O-])c1` the “activity change, negative = growth inhibition” value was inactive: 7.16%. In the case of `Fc1ccc2nc3n(c2c1F)CCCCCC3`, the “activity change, negative = growth inhibition” value is reported as inactive: -6.75%. For `COc1ccc(C(=O)C2CCCN(C(=O)c3c4c(nn3C)CCCC4)C2)cc1F` (stereo not given), the activity change, negative = growth inhibition was inconclusive: -31.9% [inhibitor]. With `C/C(=N/NC(=O)c1ccccc1O)c1ccc(N2C(=O)C3CCCCC3C2=O)cc1` (stereo not given) the “activity change, negative = growth inhibition” value was inactive: -4.96%. For `CCOC(=O)/C(=C\C=C\c1ccccc1)NC(=O)c1ccccc1`, the Potency was inconclusive [inhibitor, single point]. With `CC(C)C[C@@H](CN)NC(=O)c1nc[nH]c1C(=O)N[C@@H](CC(C)C)C(=O)CNC[C@H](C)NC(=O)c1nc[nH]c1C(=O)N[C@@H](C)C(=O)O` the “activity change, negative = growth inhibition” value was inactive: -7.52%. For `CCN(CCCNC(=O)CNC(=O)c1nn(-c2ccc(OC)cc2OC)c(=O)c2ccccc12)c1cccc(C)c1`, the Potency was inconclusive [inhibitor, single point]. With `COc1cccc(C(=O)N(Cc2ccco2)Cc2cc3cccc(C)c3[nH]c2=O)c1` the Potency was inconclusive [inhibitor, single point]. In the case of `CC(=O)c1ccc(NC(=S)NC(=O)/C=C/c2ccco2)cc1`, the activity change, negative = growth inhibition is reported as inconclusive: -31.4% [inhibitor]. In the case of `CN(C)Cc1c(C(=O)N/N=C/C2CC=CCC2)nnn1-c1nonc1N` (stereo not given), the “activity change, negative = growth inhibition” value is reported as inactive: -1.06%. With `CCOc1ccc(NC(=O)CN(C)C(=O)c2cc(C3CC3)nn2-c2ccccc2)cc1OCC` the Potency was inconclusive [inhibitor, single point]. In the case of `NC(=NCCc1c[nH]c2ccccc12)NS(=O)(=O)c1cc(F)ccc1F`, the Potency is reported as inconclusive [inhibitor, single point]. With `CN1CCC(N(C)C(=O)CNC(=O)c2ccc(C(C)(C)C)cc2)CC1` the “activity change, negative = growth inhibition” value was inactive: -19.7%. For `COc1cccc(CN2CCNC(=O)C2CC(=O)N(C)CCC2CCOCC2)c1OC` (stereo not given), the activity change, negative = growth inhibition was inconclusive: -23.7% [inhibitor]. With `CCCCCn1c(=NC(C)=O)c(C#N)cc2c(=O)n3ccccc3nc21` the activity change, negative = growth inhibition was inconclusive: -31.3% [inhibitor].
